72 sequences from paper PMC10726135 can be followed below.

The list shows a part of the results. At the low end of the ranking the order means little. The protein was read in a cell extract, so binding may be indirect.

The target of this test is T1, HNF4alpha8 (COS-7 nuclear extract) (UniProt P41235-5).
T1 sequence: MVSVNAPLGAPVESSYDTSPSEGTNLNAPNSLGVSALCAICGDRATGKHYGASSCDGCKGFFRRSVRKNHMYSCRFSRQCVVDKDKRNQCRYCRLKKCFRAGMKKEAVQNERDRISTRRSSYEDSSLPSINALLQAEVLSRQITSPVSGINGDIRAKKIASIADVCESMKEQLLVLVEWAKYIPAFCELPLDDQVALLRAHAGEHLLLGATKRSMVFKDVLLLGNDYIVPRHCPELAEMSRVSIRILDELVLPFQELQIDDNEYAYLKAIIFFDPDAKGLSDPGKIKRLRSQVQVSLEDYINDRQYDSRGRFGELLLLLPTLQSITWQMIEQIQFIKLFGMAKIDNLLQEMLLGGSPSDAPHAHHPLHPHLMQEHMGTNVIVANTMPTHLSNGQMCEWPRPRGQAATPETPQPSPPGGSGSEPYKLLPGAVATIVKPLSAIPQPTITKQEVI
Nature of the test: protein-binding microarray. Conditions: COS-7 nuclear extract on double-stranded Agilent 4x180k PBM; binding buffer, salt, pH and temperature not given; high values mean tight binding; double strand, one strand shown; sequences stand for … in …GCCTAGGGAGATTAGAGTATCGGTCGA
For the sequence AGAGGTGAGAGCAGAATGAGCAAGGTGGGT, the binding signal (log2 normalized intensity) is -1.12. With CAGGATCCAAGATCCAACTCTGAAGATTCA, the binding signal (log2 normalized intensity) is -1.23. As for ACTGATAAGGTTCCAGCAAAGAGATTAGGA, the binding signal (log2 normalized intensity) was -1.41. CTTTCTTTGTCTGTGTAGACTCATCTGGTG: the binding signal (log2 normalized intensity) came out at 1.89. As for ACACAGCTTGGAGCTCCTTGTGAGCAGGAT, the binding signal (log2 normalized intensity) was -1.29. Turning to CGGTTCCGGGCGGCAGCACAAGGCGGTAGC, the binding signal (log2 normalized intensity) was -1.2.

Turning to AAGGGTAAAGATTATGAACTAATTTGTCTT, the binding signal (log2 normalized intensity) is -0.728. On to AGCTTCAAAGGACAGGCTGACTATCACTGG, for which the binding signal (log2 normalized intensity) is -1.27. The value for AGATGTAAACATCATTCACGTGCCTGAGAT was -0.397; that for TCGGTTTTCAAATGAACCCGGCAGGCGGGA was 2.18. In the case of TCTAGAAGAGGTTAAAGACCTTTGGGTAGG it was 2.82. As to AACCAAAGGATTATTACATGTTTACCCACA, the binding signal (log2 normalized intensity) came out at 0.782. In the case of CTGCAGAGGGACTGACTCCCTTTTCAACAA it was -1.31. In the case of CATGTGGGTCCAAAGAACATTGCATTCCTT it was 2.09; in that of GGGCAAATGGAAGAATCACAGTGTGGGGCA, -0.0916.

TCAGAAAACCCACGCCCACCCTATTGATGC: the binding signal (log2 normalized intensity) came to 2.72.

Turning to ACCCAGGTATGACAAGCATGCACTGGGGTT, the binding signal (log2 normalized intensity) was -0.97. In the case of TGGTAAGTGCAAGGCCCAGCTAGAAGCAGT it was -1.28. In the case of AGTTTTCTCTGTCCCAAGAGCAAGAAGGTC, the binding signal (log2 normalized intensity) was determined as 1.62. Turning to ACTCAGGATACCTAAGCCCCATGCTGATAA, the binding signal (log2 normalized intensity) came to 1.62. The value for ACATTGCAAATCTCTTCTTCCTTTCTATCA was -0.0142; that for AAGGGGGGTGGGGAGGCAGGTGGCTACATG was -1.22.

Turning to TGCCATTTATCAGTGATTTCTCTTCCATCT, the binding signal (log2 normalized intensity) worked out at 0.611. In the case of TTTGGACCTGGCCTGCGGGGTCAGGCCGTG it was 2.71. On to TGCAAGGTTCTCTCTTCTTCCCCTCCTTCA, for which the binding signal (log2 normalized intensity) was 2.29. TTGAGAAGCAGGAGCATGGGGGATGGGGCC: the binding signal (log2 normalized intensity) is -1.44. The value for CTCCCAGAGGTCGATCTGATCTTAAGTTGT was 1.72; that for TCAAGACCGATTGTGTTTTAGGCAAACATT was 0.131; that for GCCCAAGATAACCTCCCCTCTGACCAGAGA was 2.01. The value for TGAAGGCAGGGCTTTTCCATTGACAGTCCA was -0.79; that for GTACAGGCAGTGACTGGACCACGATCAGCC was -1.36. Regarding TGAAATTCAACAGAACTGTTTGAGGGTAAA, the binding signal (log2 normalized intensity) was -1.19. In the case of CCTGGGGCCTTGGGCCACCTGAGACAGTTT it was -1.3; in that of TGATAAGCAGTGTGGACTTTTTCCTGAGGG, 1.42. In the case of GGGAGTTGGGGTCCAAAGTCTTTGTTCCTA it was 4.49; in that of AATTCTTAAGCCAAAGTCCAAGTTGGTGAG, 3.81; in that of AGCACGATGAATAGGGACGTTCTACTTGTT, -0.192.

For the sequence TCAAGTCATAACTGGATGGTGCCTATTTGT, the binding signal (log2 normalized intensity) is 1.28.

As for CAAACAATGAGAGGCAACATTCCCAGTTAT, the binding signal (log2 normalized intensity) is -1.28. The value for CTCCAGGGACTGAGGGAGGGAGGAGGGACT was -1.37. The value for CTCCAAGGGTATAGGATAAGGAATGAAGCA was -1.18. In the case of ACTCCGGGGAGCAGGCAGAGGAACAGAGGG it was -1.3. For CTGTTCACATGCTAATTACGGGCAGAGCTG, the binding signal (log2 normalized intensity) is -0.568.

As for TTCCTTATCTGGAATTCCTCCTCCTGTTTG, the binding signal (log2 normalized intensity) was 0.85.

With TCTCAGTGGGTGGGAAAGGGTGCTCCAGGC, the binding signal (log2 normalized intensity) was -1.25.

As for TAAGATACGAAGGGTTTAAAGGGCAGAAGA, the binding signal (log2 normalized intensity) was found to be 2.39. On to GGCCTAGACACAGACTCAAGTGAGGAAGGA, for which the binding signal (log2 normalized intensity) was -1.12.

With ATGTTTCCTCTCCCAGCCCCTAGCCCTAAG, the binding signal (log2 normalized intensity) was determined as 3.3.

Regarding CGCTGCTGCAGAGCAAAGCTGATAAAGAGG, the binding signal (log2 normalized intensity) was -1.24. The value for CCTCAAGAGACAACCAAGGTTGCAGAGTGT was -0.349; that for AGACATAACTCAAACATCTGACAGAGATAA was -1.35. In the case of AGTCTTGGCCCCACCGGTCACGACCCCGCT it was 3.94; in that of TTAATCACAGGATTTAAAGAATTCCAGACA, -1.38; in that of TCACACAAATGGATCTTTCTTCAAAAAGAG, -0.0678. In the case of CAAGATTAGTGGGAAAGCTATTGCTCTGCA it was -1.34. Consider ACCTGTATTAGGAAATTGTCAGTGCCCTAT, for which the binding signal (log2 normalized intensity) is 2.62. For AATGGGAGGAACTCCAGAACCAAAGTCCTA, the binding signal (log2 normalized intensity) was -1.19. The value for AGGCCGCGCCCGCCCGCGCCGGCCTCGGTC was -1.26; that for AAGATAAGGACTGTTGGACCTCGAACTCCA was 5.09. For the sequence CTGGAAGCTCTTCTGTGCCTCCCAAATGCA, the binding signal (log2 normalized intensity) was 1.92. For TGCACTGTTTGCATAAAGTTAAACTTTAAA, the binding signal (log2 normalized intensity) was 1.29. Regarding GCCCGAAAGACGCGGAGCGGGGGACCGAGA, the binding signal (log2 normalized intensity) is -1.28. In the case of TGGATAAAGTCCATATTCTTTGTTTGGATG it was 2.28.

Consider GCCAAAGGTAATAGGAAAAGGGAGTTTTCT, for which the binding signal (log2 normalized intensity) is -1.27. As to AGCCTCTCTGCAAACATTTATTTTGTGTGC, the binding signal (log2 normalized intensity) worked out at 1.44. The value for AGGTGACAGCCTTTTCTTATCAGGCTCATT was -1.02. In the case of ATACAGACACACCTAGGGAGTTAATCACAG, the binding signal (log2 normalized intensity) is -1.16. As to CAGTTTTCCTAAGGGGCTTTTATTGGCTCC, the binding signal (log2 normalized intensity) stood at 0.128. The value for TCAACATTGATGGGGCAGGGAAATATGTTC was 1.02; that for AAAATTAAGGTTCAAAGGGAAAAAATAATC was -0.034; that for AGGAACTTGTCTAAAAACATTGTGGAGCTC was 0.736.

For the sequence CATACAATGAATATTCAGACGCATGACCTC, the binding signal (log2 normalized intensity) came out at 3.74.
